According to publication PMC4336329 (PLoS ONE, 2015):
The whole screen tested about 310,000 compounds, of which about 2,200 (0.71%) showed an effect of 50% or more. The effect is printed as a negative number. This is one part of the list.

molecular target: human ether-à-go-go-related gene (hERG) potassium channel (human, UniProt Q12809); assay: primary screen, population patch clamp on CHO cells stably expressing hERG
Sequence (Q12809 whole entry, looked up): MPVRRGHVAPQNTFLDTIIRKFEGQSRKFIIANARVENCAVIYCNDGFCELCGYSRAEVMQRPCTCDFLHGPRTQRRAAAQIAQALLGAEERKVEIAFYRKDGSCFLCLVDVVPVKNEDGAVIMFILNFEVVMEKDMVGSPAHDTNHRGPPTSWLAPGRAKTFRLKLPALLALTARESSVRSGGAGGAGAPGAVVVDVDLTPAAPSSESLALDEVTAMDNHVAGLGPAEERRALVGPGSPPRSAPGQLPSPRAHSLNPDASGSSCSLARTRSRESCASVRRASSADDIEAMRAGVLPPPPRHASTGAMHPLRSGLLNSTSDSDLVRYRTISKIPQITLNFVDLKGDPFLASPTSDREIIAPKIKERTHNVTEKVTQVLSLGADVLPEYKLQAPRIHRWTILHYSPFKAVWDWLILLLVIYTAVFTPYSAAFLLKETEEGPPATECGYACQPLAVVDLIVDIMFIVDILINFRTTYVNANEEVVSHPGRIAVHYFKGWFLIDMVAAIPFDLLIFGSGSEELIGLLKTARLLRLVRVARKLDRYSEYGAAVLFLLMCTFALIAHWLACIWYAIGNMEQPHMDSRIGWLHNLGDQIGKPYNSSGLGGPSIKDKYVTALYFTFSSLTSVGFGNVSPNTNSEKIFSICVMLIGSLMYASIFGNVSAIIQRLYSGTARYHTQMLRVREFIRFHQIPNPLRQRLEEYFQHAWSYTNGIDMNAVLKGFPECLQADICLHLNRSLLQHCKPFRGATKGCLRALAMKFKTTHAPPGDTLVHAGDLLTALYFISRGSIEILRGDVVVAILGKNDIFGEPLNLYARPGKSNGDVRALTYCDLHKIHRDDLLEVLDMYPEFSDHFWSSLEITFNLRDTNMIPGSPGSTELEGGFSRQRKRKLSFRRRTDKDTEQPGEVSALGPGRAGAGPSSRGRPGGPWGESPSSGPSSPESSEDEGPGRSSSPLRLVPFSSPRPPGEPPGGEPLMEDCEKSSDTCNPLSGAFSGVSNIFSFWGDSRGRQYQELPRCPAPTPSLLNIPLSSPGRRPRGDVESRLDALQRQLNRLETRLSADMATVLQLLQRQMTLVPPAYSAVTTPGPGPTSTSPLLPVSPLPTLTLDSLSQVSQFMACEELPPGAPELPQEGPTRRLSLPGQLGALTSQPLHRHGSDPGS

SMILES | hERG current change (%, negative = inhibition) at 1uM [%]
COc1ccc(Cn2c(=O)[nH]c3cc(C(=O)N4CCN(c5ccc(OC)cc5)CC4)ccc3c2=O)cc1 | 13
COc1ccc(C(NC(C)=O)c2cc(Cl)c3cccnc3c2O)cc1 (stereo not shown) | 12.3
CC1=C(C#N)C(=O)OC(C)(C)C1 | 12.7
CC(=O)c1c(C)[nH]c(C(=O)CSc2nnc3ccccn23)c1C | -0.286
CCCc1cc(=O)[nH]c(SC(C)C(=O)Nc2ccc3c(c2)OCCO3)n1 (stereo not shown) | 17.3
CN(C)c1ncnc(N(C)C)c1[N+](=O)[O-] | 12
CCOC(=O)c1sc2nccc(OC)c2c1N=CN(C)C | 9.95
COc1cccc(CN(C)C(=O)C2CCN(S(=O)(=O)c3ccc(C)cc3)CC2)c1OC | -0.0427
COc1ccc(-c2noc3c2-c2nc(-c4ccc(C)cc4)sc2CC3)cc1 | 19
COc1cc(/C=C2/C(=O)NN(c3cccc(F)c3)C2=O)ccc1OC(=O)c1ccco1 | 11.7
CC(Cc1cccs1)NCc1ccc(Cl)cc1 (stereo not shown) | 2.3
CC(C)CNC(=S)N1CCN(Cc2ccc3c(c2)OCO3)CC1.O=C(O)C(=O)O | 6.67
CC1(C)Cc2nc(Cl)c(C#N)cc2CO1 | 3.41
CCCC(=O)NC(=S)Nc1ccc(CN2CCOCC2)cc1 | 16.5
Cc1[nH]n(-c2ccccc2)c(=O)c1C(C[N+](=O)[O-])c1ccc(Cl)cc1 (stereo not shown) | 3.17
Cc1cccc(C)c1NC(=O)NC1(C(=O)N2CCCCC2)CCCCC1 | 12.5
N=c1cc(C2(O)CCCCC2)n2c(nc3ccccc32)s1 | -5.51
Cc1cccc(S(=O)(=O)NCCc2ccccc2)c1 | 14.8
CCCN1CCc2c(sc(NC(=O)c3ccc(S(=O)(=O)N(C)c4ccccc4)cc3)c2C(N)=O)C1 | 14.5
COCCNC(=O)Cn1cc(C(=O)c2ccccc2F)c2ccccc21 | 10.9
COc1cc2c(cc1OC)C(Nn1cnnc1)=NC1(CCCC1)C2 | 11.1
O=S(=O)(NC1Cc2ccccc2C1)c1ccccc1 | 11.9

SMILES | hERG current change (%, negative = inhibition) at 1uM [%]
CC(=O)Cn1c(N2CCC(Cc3ccccc3)CC2)nc2c1c(=O)[nH]c(=O)n2C | 17
Cc1ccc(NC(=S)N(CCCN2CCCC(C)C2)Cc2ccco2)cc1C (stereo not shown) | -36.5
CCOc1ccc(-c2cnc(SCC(N)=O)nc2N)cc1 | 11.1
CC1CCN(S(=O)(=O)c2ccc(NC(=O)CSc3ncccc3C(=O)O)cc2)CC1 | 12.7
Cc1nn(-c2ccccn2)c2c1-c1nc(N)ncc1CC2 | 9.53
O=C(Nc1cccc(F)c1)C1CCCN(S(=O)(=O)c2cnc[nH]2)C1 (stereo not shown) | 21.3
CC(NC(=O)COc1ccc(S(=O)(=O)N2CCCC2)cc1)c1ccccc1 (stereo not shown) | 13.7
Cc1cc(Nc2ccccc2)nn1C(=O)c1ccc([N+](=O)[O-])cc1 | 11.9
N#CCCOC1(C#CCN2CCCC2)CCCCC1 | 17.5
O=C(CN1CCN(c2nc(-c3ccccc3)cs2)CC1)NNC(=O)c1ccco1 | 12.3
CS(=O)(=O)N1CCN(c2ccccc2NC(=O)c2cccc3ccccc23)CC1 | 9.48
COC(=O)Oc1ccc(/C=N/NS(=O)(=O)c2ccccc2)cc1OC | 12.6
Cc1ccc(C(=O)c2coc3ccc(O)c(CN4CCN(C)CC4)c23)cc1 | -25.5
O=C(CSc1nc2ccccc2o1)N/N=C/c1ccco1 | 15.4
COc1cccc(N(C(=O)Cn2nnc(-c3ccc(Cl)cc3)n2)C(C(=O)NCC2CCCO2)c2ccc(C)cc2)c1 (stereo not shown) | 17.4
CC12CCC(C1)C(C)(C)C2OC(=O)c1ccccc1C(=O)O (stereo not shown) | 11.4
O=C(COc1ccccc1[N+](=O)[O-])N/N=C/c1ccc(OC(=O)c2ccco2)cc1 | 2.95
CCOc1ccc(Cn2c(=O)sc3ccccc32)cc1 | 14
COC(=O)[C@@H]1C[C@@]2(O)[C@H](O)[C@H](O)[C@H](O)C[C@H]2N1Cc1cccc2ccccc12 | 10.9
COc1ccc(NC(=O)Cn2c(=O)cnc3ccccc32)cc1S(=O)(=O)N1CCCCC1 | 6.72
CCOC(=O)CSc1nc2ccccc2c(=O)n1CC1CCCO1 (stereo not shown) | 9.44
Cc1ccc(Cl)cc1NC(=O)CNC(=O)N1CC(=O)Nc2ccccc21 | 5.73

SMILES | hERG current change (%, negative = inhibition) at 1uM [%]
O=C(O)c1cc(-n2nnnc2SCc2ccc([N+](=O)[O-])cc2)ccc1Cl | 6.05
O=C(CSc1nnc(-c2ccccc2Cl)o1)Nc1ccc2c(c1)OCCO2 | 7.9
CCO[C@H]1OC(C(=O)NCc2ccccc2)=C[C@@H](c2ccc(Br)cc2)[C@@H]1CCCO | 4.51
CCN(CC)CCN1C(=O)C(=O)/C(=C(/O)c2ccc(S(=O)(=O)N3CCOCC3)cc2)C1c1ccc(C)cc1 (stereo not shown) | 15.4
CC(C)(C)NC(=O)CSC(=Nc1cccc(F)c1)NC#N | 13.8
COCCN(Cc1cc2cc(C)ccc2n2nnnc12)C(=S)Nc1ccc(C)cc1 | 6.71
COc1ccc(OC)c(NC(=S)NCc2ccco2)c1 | 6.27
CCN(CC)c1ccc2nc3ccccc3[n+](CC)c2c1.[I-] | -2.6
O=C1CC(c2ccc3c(c2)OCCO3)Oc2ccc([N+](=O)[O-])cc21 (stereo not shown) | 4.23
Cc1cc2nc(/C=C/c3nc4cc(C)c(C)cc4[nH]3)[nH]c2cc1C | 18.9
COc1cc(CCN2C(=O)c3cccc4cccc(c34)C2=O)c(S(=O)(=O)N2CCC(C)CC2)cc1OC | -4.54
CN1/C(=C\C=Nc2ccc3ccccc3c2)C(C)(C)c2ccccc21 | -75.1
CC(=O)c1c(O)cc(C)oc1=O | 20.5
CCCCN1CCNC[C@@H]1c1ccccc1 | 10.2
COc1ccc(CCNC(=O)COC(=O)c2cc(OC)c(OC)cc2OC)cc1OC | 5.82
CC(c1ccccc1)n1c(S(=O)(=O)O)nc2ccccc21 (stereo not shown) | 13.3
CN(C)/C=C/C(=O)c1cnc(-c2ccccc2Cl)s1 | -10.7
CCCc1noc2c1C(c1cc(Br)ccc1F)C(C#N)=C(N)N2 (stereo not shown) | 1.3
CCOc1ccc(NC(=O)c2oc3ccccc3c2NC(=O)CC)cc1 | -6.74
COc1cc(S(=O)(=O)N2CCN=C2c2ccccc2)c(OC)cc1Cl | 26.3
CNc1c2c(nn1C)CCCC2 | 17.5
O=C(CCn1c(=O)[nH]c2ccsc2c1=O)N1CCN(c2ccc([N+](=O)[O-])cc2)CC1 | 0.952

SMILES | hERG current change (%, negative = inhibition) at 1uM [%]
COc1ccc(-c2n[nH]c(=S)n2Cc2ccccc2)cc1OC | 11.5
CCC(C)NC(=O)C(=O)NCc1ccccn1 (stereo not shown) | 10.7
COc1ccc(NC(=O)Nc2ccc(F)cc2F)cc1 | 7.66
COc1cc(NC(=O)c2cccs2)c(OC)cc1NC(=O)CCn1nnc2ccccc21 | -10.6
CCn1c(SCC(=O)Nc2ccc3c(c2)oc2ccccc23)nnc1-c1ccc(N)cc1 | 9.88
C/C(CCc1ccc2c(c1)OCO2)=N\N=C1\NC(=O)CC(C(=O)Nc2ccccc2F)S1 (stereo not shown) | 12.2
CCCS(=O)(=O)c1c(S(=O)(=O)CCC)c2c(N)cccn2c1C(=O)c1ccc(Br)cc1 | 9.42
Cc1nnc(SCC(=O)c2ccccc2F)n1Cc1ccccc1 | 5.67
O=C(NCc1cccnc1)c1ccc(COc2cccc3ccccc23)o1 | 12.1
COc1cc(C(=O)OCC(=O)Nc2ccc(N3CCOCC3)cc2)ccc1OCC(C)C | 2.6
CCOc1cccc(NC(=O)c2ccc(S(=O)(=O)N3CCCC3)cc2)c1 | 3.69
COc1ccc2c(C)cc(N3CCN(c4ccc(F)cc4)CC3)nc2c1 | -0.066
Cc1c2c(nc3ccccc13)CCC(C)C2.Cl (stereo not shown) | -0.35
Cc1ccc(/C=C2\SC(N3CCCCC3)=NC2=O)cc1 | 11.2
COC(=O)CCCC1=CC2=CC(=O)C(C)(OC(=O)c3cccs3)C(=O)C2=CN1Cc1ccc2c(c1)OCO2 (stereo not shown) | 7.41
O=C(CSc1nnc(-c2cccnc2)o1)Nc1ccccc1Br | 9.33
C#Cc1ccc([C@@H]2C=C(C(=O)NCc3ccccc3)O[C@H](OCc3ccc(CO)cc3)C2)cc1 | 17.3
COc1ccc(-c2csc3ncnc(NCCCO)c23)cc1 | 9.93
O=C(Nc1ccccc1)C1C2CCC3C(CCC21)C3(Cl)Cl (stereo not shown) | 10.2
O=C(c1cccnc1)N1N=C(C2CCCCC2)CC1(O)C(F)(F)F (stereo not shown) | 5.34
Brc1ccccc1C1N=C(c2ccccc2)NO1 (stereo not shown) | 12.3
CC(=O)N1CCOc2ccc(S(=O)(=O)NCc3ccc(Cl)cc3)cc21 | 11.7
